# The full ranking holds about 81,000 sequences; the median of “one-hybrid fitness for binding NBS DNA” is about -0.1, and the highest 2% start at about 0.36. The list shows a part of the results.
# B1: Caulobacter ParB omega fusion; a variant is named by its letters at X, in order, B8GW30 (parent)
# chain: MESVVVGEPGMSEGRRGLGRGLSALLGEVDAAPAQAPGEQLGGSREAPIEILQRNPDQPRRTFREEDLEDLSNSIREKGVLQPILVRPSPDTAGEYQIVAGERAWRAAQRAGLKTVPIMVRELDDLAVLEIGIIENVQRADLNVLEEALSYKVLMEKFERTQENIAQTIGKSXSHVANXMRLLXLPDEVQSYLVSGELTAXHARAIAAAADPVALAKQIIEGGLSVRETEALARKAPNLSAGKSKGGRPPRVKDTDTQALESDLSSVLGLDVSIDHRGSTGTLTITYATLEQLDDLCNRLTRGI
# Variants of: B1
# Experiment: one-hybrid fitness for binding NBS DNA (the Noc-binding site; scaled: cognate 1, non-cognate 0); higher = stronger binding
# Conditions: with NBS DNA site
# How it was run: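 On M9-minus-histidine containing 0.1 mM IPTG and 5 mM 3-AT, E. coli USO cells with a HIS3 reporter, site 19 bp from the promoter, grew 48 hours at 37°C to select Caulobacter ParB libraries randomised at four specificity codons. Plasmids from before and after were Illumina-sequenced, with three replicate libraries pooled and variants under 10 reads left out. Fitness is the log change in variant-to-wild-type read ratio, rescaled against cognate and non-cognate.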
row,Variant,one-hybrid fitness for binding NBS DNA
1,LSLW,≤ 0.2
2,EASC,≤ 0.2
3,HADT,≤ 0.2
4,HGTS,≤ 0.2
5,TKKK,≤ 0.2
6,GGAG,≤ 0.2
7,RMQI,≤ 0.2
8,RPDF,≤ 0.2
9,STED,≤ 0.2
10,VLFY,≤ 0.2
11,NLEH,≤ 0.2
12,HQNL,≤ 0.2
13,REMN,≤ 0.2
14,WTNM,≤ 0.2
15,RVYM,≤ 0.2
16,FPQS,≤ 0.2
17,QVKR,0.786
18,EFTS,≤ 0.2
19,LHFC,≤ 0.2
20,NTDM,≤ 0.2
21,QPRI,≤ 0.2
22,PIHG,≤ 0.2
23,AFDY,≤ 0.2
24,QTSY,0.296
25,RLRN,≤ 0.2
26,RHVR,0.248

row,Variant,one-hybrid fitness for binding NBS DNA
1,LIHK,≤ 0.2
2,TTTC,≤ 0.2
3,PGPT,≤ 0.2
4,PHVR,≤ 0.2
5,PHVC,≤ 0.2
6,QVWR,≤ 0.2
7,CLSS,≤ 0.2
8,FAQW,≤ 0.2
9,VGLS,≤ 0.2
10,RKPC,≤ 0.2
11,DPPI,≤ 0.2
12,PPST,≤ 0.2
13,RSWD,≤ 0.2
14,WTGN,≤ 0.2
15,HPSQ,≤ 0.2
16,RFDA,≤ 0.2
17,TLKA,≤ 0.2
18,MYIG,≤ 0.2
19,HSLP,≤ 0.2
20,VFVT,≤ 0.2
21,YAAN,≤ 0.2
22,QHHW,≤ 0.2
23,FCTR,≤ 0.2
24,GMSY,≤ 0.2
25,AWEW,≤ 0.2
26,TMTY,≤ 0.2

row,Variant,one-hybrid fitness for binding NBS DNA
1,APIY,≤ 0.2
2,RTLL,≤ 0.2
3,APDC,≤ 0.2
4,CNPA,≤ 0.2
5,QSEG,≤ 0.2
6,PGGE,≤ 0.2
7,ALYS,≤ 0.2
8,LPIN,≤ 0.2
9,LFQC,≤ 0.2
10,TTNI,≤ 0.2
11,IVAT,≤ 0.2
12,ISKR,0.243
13,QNHC,≤ 0.2
14,TFYL,≤ 0.2
15,VSAY,≤ 0.2
16,LNGT,≤ 0.2
17,VPRF,≤ 0.2
18,ATDS,≤ 0.2
19,PRGG,≤ 0.2
20,AGTA,≤ 0.2
21,FPDS,≤ 0.2
22,KSHL,≤ 0.2
23,HRKF,≤ 0.2
24,TRKG,≤ 0.2
25,SAPV,≤ 0.2
26,VESK,≤ 0.2

row,Variant,one-hybrid fitness for binding NBS DNA
1,RHMV,≤ 0.2
2,PRLD,≤ 0.2
3,PWAM,≤ 0.2
4,SVNM,≤ 0.2
5,YESV,≤ 0.2
6,NHQM,≤ 0.2
7,RTRT,0.704
8,DWQR,≤ 0.2
9,HAGY,≤ 0.2
10,EAAG,≤ 0.2
11,DQPY,≤ 0.2
12,THIW,≤ 0.2
13,AIAG,≤ 0.2
14,FRYF,≤ 0.2
15,ATVK,≤ 0.2
16,PLKE,≤ 0.2
17,WKQT,≤ 0.2
18,ESGR,≤ 0.2
19,SYSD,≤ 0.2
20,SEMS,≤ 0.2
21,HSWI,≤ 0.2
22,PEMH,≤ 0.2
23,QRML,0.219
24,CYDS,≤ 0.2
25,GWYG,≤ 0.2
26,NTKP,≤ 0.2

row,Variant,one-hybrid fitness for binding NBS DNA
1,VCMM,≤ 0.2
2,GWMV,≤ 0.2
3,PYQG,≤ 0.2
4,SDYI,≤ 0.2
5,FWTR,≤ 0.2
6,CNWS,≤ 0.2
7,VPDT,≤ 0.2
8,LMYA,≤ 0.2
9,HRAN,≤ 0.2
10,TQFI,≤ 0.2
11,FFNM,≤ 0.2
12,TSKT,≤ 0.2
13,TIFR,≤ 0.2
14,QGGC,≤ 0.2
15,AKHV,≤ 0.2
16,SMVC,≤ 0.2
17,LNNE,≤ 0.2
18,DWKE,≤ 0.2
19,ALKV,≤ 0.2
20,TDQA,≤ 0.2
21,PIRV,≤ 0.2
22,SGFC,≤ 0.2
23,IGCG,≤ 0.2
24,VFSF,≤ 0.2
25,PCRT,≤ 0.2
26,QEQS,≤ 0.2

row,Variant,one-hybrid fitness for binding NBS DNA
1,PKLN,≤ 0.2
2,ALCR,≤ 0.2
3,RMHW,≤ 0.2
4,QDQP,≤ 0.2
5,QCNV,≤ 0.2
6,HKYT,≤ 0.2
7,YKRY,≤ 0.2
8,AMDR,≤ 0.2
9,PQPY,≤ 0.2
10,PYQA,≤ 0.2
11,WSLQ,≤ 0.2
12,PEAF,≤ 0.2
13,CYPF,≤ 0.2
14,TLLR,≤ 0.2
15,MNRA,≤ 0.2
16,CGGR,≤ 0.2
17,LDYG,≤ 0.2
18,WQKR,0.279
19,RCQY,≤ 0.2
20,EAYD,≤ 0.2
21,RVIY,≤ 0.2
22,CMDR,≤ 0.2
23,QETD,≤ 0.2

# From a collection of fitness landscapes (doi:10.1016/j.celrep.2020.107928)
